The results in this text go back to PubChem BioAssay AID1347073 (National Center for Advancing Translational Sciences (NCATS), 2019).

Hit rate of the full screen: of about 45,000 compounds, about 200 (0.44%) were called active. About 7% were inconclusive and are not listed. Calls come from the whole dose curve; as a rule, active = well fitted activation curve with a large enough effect; inconclusive = small, poorly fitted or top-dose-only effect; inactive = no such curve, though single readings can be large or run the other way. This is one part of the list.

This experiment can be described thus: qHTS of TDP-43 Inhibitors: NCGC Sytravon Library Screen. Note: 0% is about no effect; nearly all actives have a fitted effect of over 55% in size. Conditions: yeast TDP-43 toxicity rescue, BacTiter-Glo growth, 24 h; series mostly up to 46.1 µM; growth rescue (activation): at the top concentration. The method in brief: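 TDP-43-expressing yeast, pregrown in raffinose, seeded at OD600 0.02 in galactose medium with compound for 24 hr at 30 deg C. Growth read by BacTiter-Glo luminescence, so rescue of toxicity appears as activation.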
(In qHTS, concentration-response curves come from the screen itself.)
In the case of `CCN(CC)CCCNC(=O)c1cn(CC(C)C)c(=O)c2c1c1ccccc1n2C`, the “growth rescue (activation)” value was inactive: -1.45%. As for `Cc1ccc2nc(-c3ccsc3)c(Nc3ccc(Cl)cc3)n2c1`, the figure is inactive: 0.918%; as for `CCOc1ccc(C(=O)Cc2cc3cccc(OC)c3oc2=O)cc1`, inactive: 9.64%; as for `CCOc1ccc(C(=O)Nc2ccc3c(c2)OCCO3)cc1`, inactive: 23.9%.

Take `O=C(NC1CCN(Cc2ccccc2)CC1)c1ccccc1NS(=O)(=O)c1ccc(F)cc1`: the “growth rescue (activation)” value was inactive: 18.8%. Take `Nc1nnc(CSCc2ccc(Cl)cc2)s1`: the “growth rescue (activation)” value is inactive: 16.2%. As for `CC(=O)c1cccc(NC(=O)[C@H]2O[C@@H]3OC(C)(C)O[C@@H]3[C@H]3OC(C)(C)O[C@H]32)c1`, the figure is inactive: 11.5%; as for `O=C(NCc1ccc(Cl)cc1)C(=O)N/N=C/c1ccc(Br)cc1`, inactive: -3.92%. Take `COc1ccc(Cc2noc(CN(C)CCc3ccccc3)n2)cc1OC`: the “growth rescue (activation)” value is inactive: 5.57%. As to `COc1ccc(OCC(=O)N(Cc2sccc2C)C2CCS(=O)(=O)C2)cc1` (stereo not drawn), the “growth rescue (activation)” value was inactive: 6.79%. As for `COCCCNC(=O)C(CC(N)=O)NC(=O)OCc1ccccc1` (stereo not drawn), the figure is inactive: 28.7%; as for `Cc1ccc(NC(=O)CSc2nnc(-c3ccncc3)n2C)cc1S(=O)(=O)N1CCOCC1`, inactive: -5.83%. Regarding `CCSc1nnc(NC(=O)COc2ccccc2[N+](=O)[O-])s1`, the “growth rescue (activation)” value was inactive: 3.9%.

Turning to `O=C(NC1CC2CCCC(C1)N2C(=O)Nc1ccccc1F)C1CC1` (stereo not drawn), the “growth rescue (activation)” value was inactive: -2.59%. As for `O=C(COc1ccc(/C=N/NS(=O)(=O)c2ccccc2)cc1)N1CCOCC1`, the figure is inactive: -10.4%; as for `Cc1[nH]c(=O)[nH]c(=O)c1S(=O)(=O)N(CC(C)C)CC(C)C`, inactive: 1.82%. As for `S=c1[nH]nc(-c2ccncc2)n1CC1CCCO1` (stereo not drawn), the figure is inactive: -3.06%; as for `CN1CCN(S(=O)(=O)c2cccc(C#N)c2)C(c2ccccc2)C1` (stereo not drawn), inactive: -18.8%. In the case of `COc1ccc(S(=O)(=O)N2CCN(C3CCCCCCC3)CC2)cc1`, the “growth rescue (activation)” value is inactive: -3.29%. As for `O=C(NCC(c1ccco1)N1CCCCC1)c1ccc2c(c1)S(=O)(=O)c1ccccc1C2=O` (stereo not drawn), the figure is inactive: 7.04%; as for `O=C(Nc1cccc(C(F)(F)F)c1)c1cccnn1`, inactive: 14.1%; as for `O=C(N/N=C/c1ccccc1)c1cc[n+]([O-])cc1`, inactive: 12.4%. As for `COCCCn1c(SCC(=O)O)nc2cc(OC)c(OC)cc2c1=N`, the figure is inactive: -7.27%; as for `Cc1cccc(-c2noc(CCCC(=O)NC3CCCC3)n2)c1`, inactive: -4.76%. The value for `CCn1nc(C(=O)NCCc2ccc3c(c2)OCCO3)c2ccccc2c1=O` was inactive: 34%; that for `CC(NC(=O)Nc1ccc([N+](=O)[O-])cc1)C(c1cccs1)N1CCCC1` (stereo not drawn) was inactive: -11.1%; that for `COc1ccc(-c2ccc(-c3noc(-c4ccccc4C)n3)c(OC)n2)cc1` was inactive: 12.8%.

On to `COc1cccc(C(=O)NCCOc2cc(C)cc(C)c2)c1`, for which the “growth rescue (activation)” value is inactive: 28%.

For `O=C(CN1C(=O)COc2ccccc21)N1CCN(C2CCCCC2)CC1`, the “growth rescue (activation)” value was inactive: -0.0463%.

In the case of `COc1ccc(N2CCN(C(=O)C3CCN(S(=O)(=O)c4ccc(F)cc4)CC3)CC2)cc1`, the “growth rescue (activation)” value was inactive: 19.4%. The value for `O=C(CSc1n[nH]c(-c2cccnc2)n1)Nc1ccc(Cl)cc1` was inactive: 2.19%; that for `COc1ccccc1/C=C/C=N/NC(=O)c1cc(-c2ccc(C)o2)[nH]n1` was inactive: 23.6%; that for `CCc1ccc(OCC(=O)Nc2ccc3c(c2)OCCO3)cc1` was inactive: 26.6%.

For `CC12COC3(C(=O)Nc4ccc(F)cc4)CC1CCC32C` (stereo not drawn), the “growth rescue (activation)” value is inactive: -6.37%. The value for `Cc1ccc(S(=O)(=O)N2CCN(CC3CC4C=CC3C4)CC2)cc1` (stereo not drawn) was inactive: 7.37%; that for `CC(=O)N1CC2(c3ccccc3)CN(C(C)=O)CC(c3ccccc3)(C1)C2=O` was inactive: 1.81%. On to `CC(NC(=O)Nc1cccc(Cl)c1)C(c1cccs1)N1CCCC1` (stereo not drawn), for which the “growth rescue (activation)” value was inactive: 8.77%.

As to `CC1CC(C)CN(CC(=O)NC(c2ccccc2)c2ccccc2)C1` (stereo not drawn), the “growth rescue (activation)” value was inactive: -4.23%.

Regarding `COc1ccc(N(CC(=O)N/N=C/c2ccc(OC)cc2OC)S(=O)(=O)c2ccccc2)cc1`, the “growth rescue (activation)” value was inactive: -15.5%. The value for `CC(=O)Nc1cc(-c2cccc(C(=O)NCCN(C)C)c2)cn2c(-c3ccccc3)cnc12` was inactive: -3.02%. The value for `Cc1cc(/C=C(/C#N)C(=O)O)c(C)n1CCC(C)C` was inactive: 14%; that for `CCOc1ccc(C(C(=O)NCCC(C)C)N(CCO)C(=O)c2snc(C(N)=O)c2N)cc1` (stereo not drawn) was inactive: 5.99%; that for `Cc1cccc(C)c1NC(=S)N/N=C/c1ccc(C(=O)O)cc1` was inactive: 20.8%. As to `COCCNC(=O)CSc1nc2c(n1-c1ccccc1)CCCC2`, the “growth rescue (activation)” value is inactive: -8.25%. As for `O=C(CSc1n[nH]c(-c2ccncc2)n1)c1cccc([N+](=O)[O-])c1`, the figure is inactive: -8.91%; as for `COc1ccc(S(=O)(=O)N(CC(=O)O)c2ccccn2)cc1`, inactive: 26.3%. On to `Cc1ccc2nc(N/C(=N/S(=O)(=O)c3ccc(F)cc3F)c3ccccc3)sc2c1`, for which the “growth rescue (activation)” value is inactive: -6.08%. The value for `CCCC(=O)OCCNc1cc(SCc2ccco2)c2nonc2c1[N+](=O)[O-]` was inactive: -15.5%; that for `COC(=O)c1c(O)cc(=O)n2c1CCCCC2` was inactive: -0.653%.

In the case of `O=C(CSc1nnc(-c2ccc(O)cc2)o1)Nc1cccc(O)c1`, the “growth rescue (activation)” value is inactive: 11.7%. The value for `COc1ccc(C(=O)N/N=C/c2c(CO)cnc(C)c2O)cc1` was inactive: -4.84%; that for `O=C(COc1ccccc1)Nc1ccc(S(=O)(=O)Nc2ccccn2)cc1` was inactive: -11.4%. As for `CCCCNC(=O)c1ccccc1NC(=O)CN(c1ccccc1)S(=O)(=O)N(C)C`, the figure is inactive: 3.32%.

As to `CC1=C(C(=O)Nc2ccccc2C(F)(F)F)C(c2ccc(C)s2)NC(=S)N1` (stereo not drawn), the “growth rescue (activation)” value is inactive: 7.74%. As for `OC(c1ccccc1)c1ncc(-c2ccc(Oc3ccccc3)cc2)[nH]1` (stereo not drawn), the “growth rescue (activation)” value is inactive: 7.16%.

On to `COc1ccc(-c2cc(C(=O)OCC(=O)N(C)C3CCS(=O)(=O)C3)c3ccccc3n2)cc1OC` (stereo not drawn), for which the “growth rescue (activation)” value was inactive: -5.38%. The value for `CCn1cc(CNC(=O)C2C3CCC(C3)C2C(=O)O)cn1` (stereo not drawn) was inactive: -0.0596%. The value for `COc1ccc(NC(=O)c2ccc(NC(=O)CN(C)CC(=O)Nc3c(C)cccc3C)cc2)cc1` was inactive: 19.8%; that for `COc1ccc(S(=O)(=O)N2CCN(C(=O)N(C)C)C2C)cc1` (stereo not drawn) was inactive: -0.949%; that for `CCOC(=O)c1c(C)c(C(=O)NCc2ccc3c(c2)OCO3)c(C)n1CC` was inactive: 0.679%. The value for `Cn1cccc1C(=O)OCC(=O)NC(=O)c1ccc(Cl)cc1` was inactive: 6.92%; that for `CCOc1ccccc1NC(=O)COC(=O)C1CCC(=O)N1` (stereo not drawn) was inactive: 0.183%. On to `Cc1ccc(C)c(C(=O)COC(=O)c2c(-c3ccccc3)noc2C)c1`, for which the “growth rescue (activation)” value was inactive: 20.5%.

With `COc1ccc(C(=O)Nc2cnc(NC(=O)c3cccs3)cc2C)cc1`, the “growth rescue (activation)” value was inactive: 4.13%. As for `O=C(c1c(O)c2ccccc2oc1=O)C1CCC1`, the figure is inactive: -91.9%; as for `O=C(OCCOCCN=C1NS(=O)(=O)c2ccccc21)c1ccccc1`, inactive: 18.4%. Regarding `Cc1cc(C)c(N(C(=O)c2csnn2)C(C(=O)NC(C)(C)C)c2ccncc2)c(C)c1` (stereo not drawn), the “growth rescue (activation)” value is inactive: 3.72%. As for `O=C(Nc1ccc2c(c1)OCO2)C1CC(=O)N(c2cccc(Cl)c2)C1` (stereo not drawn), the figure is inactive: 0.704%.
